# Measured values taken from paper PMC4336329 (PLoS ONE, 2015).
# Out of some 310,000 compounds screened, about 14,000 (4.5%) showed an effect of 50% or more. Effects have a minus sign here. The list shows a part of the results.
# Molecular target: human ether-à-go-go-related gene (hERG) potassium channel (human, UniProt Q12809)
# Experiment: primary screen, population patch clamp on CHO cells stably expressing hERG
# 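Also: peak tail current of the secondary pulse compared with the same well before compound.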
# Chain of human ether-à-go-go-related gene (hERG) potassium channel (Q12809 whole entry, looked up): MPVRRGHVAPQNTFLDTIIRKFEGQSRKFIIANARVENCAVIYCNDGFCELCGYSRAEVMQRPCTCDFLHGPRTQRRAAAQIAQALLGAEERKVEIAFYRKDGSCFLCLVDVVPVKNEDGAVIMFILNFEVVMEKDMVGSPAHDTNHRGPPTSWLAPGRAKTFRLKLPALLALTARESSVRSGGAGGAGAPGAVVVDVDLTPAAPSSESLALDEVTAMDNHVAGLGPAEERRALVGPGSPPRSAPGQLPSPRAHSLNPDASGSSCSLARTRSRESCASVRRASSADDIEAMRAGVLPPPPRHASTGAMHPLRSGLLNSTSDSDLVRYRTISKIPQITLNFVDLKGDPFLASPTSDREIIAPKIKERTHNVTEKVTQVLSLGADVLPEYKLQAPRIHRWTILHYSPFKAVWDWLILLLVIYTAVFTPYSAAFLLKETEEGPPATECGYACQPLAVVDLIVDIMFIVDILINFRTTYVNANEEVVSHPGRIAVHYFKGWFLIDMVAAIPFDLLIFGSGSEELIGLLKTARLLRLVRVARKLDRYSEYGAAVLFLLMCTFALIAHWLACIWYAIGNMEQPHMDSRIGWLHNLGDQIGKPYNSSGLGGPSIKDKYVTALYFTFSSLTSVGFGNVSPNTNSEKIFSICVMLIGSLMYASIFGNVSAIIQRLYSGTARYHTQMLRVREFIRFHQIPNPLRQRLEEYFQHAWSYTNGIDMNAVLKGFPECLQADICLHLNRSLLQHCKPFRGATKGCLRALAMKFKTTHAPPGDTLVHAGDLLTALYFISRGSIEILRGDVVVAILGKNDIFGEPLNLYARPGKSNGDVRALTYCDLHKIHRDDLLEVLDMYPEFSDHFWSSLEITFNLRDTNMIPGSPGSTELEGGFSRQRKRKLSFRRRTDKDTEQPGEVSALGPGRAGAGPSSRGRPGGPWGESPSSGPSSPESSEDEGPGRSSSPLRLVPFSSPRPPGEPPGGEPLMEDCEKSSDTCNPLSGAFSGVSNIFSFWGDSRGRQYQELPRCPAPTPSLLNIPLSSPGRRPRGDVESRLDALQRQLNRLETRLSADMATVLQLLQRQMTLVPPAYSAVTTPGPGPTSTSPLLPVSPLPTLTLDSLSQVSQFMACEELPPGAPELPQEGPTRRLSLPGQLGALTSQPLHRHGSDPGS
row,SMILES,"hERG current change (%, negative = inhibition) at 10uM [%]"
1,CC1(OC(=O)CCc2ccccc2)C(=O)C=C2C=C(c3ccc(C#N)cc3)N(Cc3ccccc3)C=C2C1=O (stereo not shown),-51.9
2,CC1CC(C)CN(c2ncc3c(n2)CC(c2ccc(Cl)cc2)CC3=O)C1 (stereo not shown),12.2
3,Cn1cc(C(=O)N2CCCCCC2)c(=O)c2cc(S(=O)(=O)N3CCCCC3)ccc21,9.15
4,O=S1(=O)C=C(Oc2ccc3ccccc3c2)c2ccccc21,7.45
5,Cn1c(=O)[nH]c(=O)c2c1nc(N1CCCC1)n2CCCSc1nnnn1-c1ccccc1,-13.5
6,Cc1cccc(C)c1NC(=O)C1(NC(=O)C2CCC(=O)N2)CCCCC1 (stereo not shown),6.61
7,COc1ccccc1C(=O)C1CCCN(Cc2cnc(C)s2)C1 (stereo not shown),-8.13
8,Fc1ccc(/C=N/n2c(C3CCCCC3)n[nH]c2=S)cc1,11.1
9,COc1ccccc1NC(=O)c1ccc(-c2ccccc2[N+](=O)[O-])o1,26.7
10,O=C(Nc1cccc(Cl)c1Cl)c1ccccc1NC(=O)C1CC=CCC1C(=O)O (stereo not shown),4.38
11,CC1=CC(C/C(C)=C/COc2ccc3ccc(=O)oc3c2)OC1=O (stereo not shown),2.36
12,CC1CCN(C(=O)c2ccccc2NC(=O)c2cccs2)CC1,-1.21
13,O=[N+]([O-])c1cccc(-c2nc(-c3ccccn3)no2)c1,4.68
14,Cc1nn(CC2CCCCC2)c(N)c1-c1ccccc1,-12.2
15,CCCCCCn1c(N2CCCC2)nc2c1c(=O)[nH]c(=O)n2C,-43
16,CCc1ccc(NC(=O)Cn2nnc(-c3ccc(C)cc3-n3cnnn3)n2)cc1,0.635
17,Cc1cc(OC(C)C(=O)N[C@H](C(=O)O)c2ccccc2)c2c3c(c(=O)oc2c1)CCC3 (stereo partly shown),-3.23
18,COc1cccc(NC(=S)N(Cc2cccc(Br)c2)CC2CCC(C(=O)O)CC2)c1 (stereo not shown),2.19
19,CC(C)CCNC(=O)c1cc(-c2cccs2)nc2ccccc12,5.1
20,CC(=O)Nc1cccc(OCc2c(F)cccc2Cl)c1,3.13
21,O=C(CCNS(=O)(=O)c1cccc2nonc12)NC1CCCCCC1,8.64
22,COc1ccc(NC(=O)C2CCC(C)(C(=O)O)C2(C)C)cc1 (stereo not shown),-6.39

row,SMILES,"hERG current change (%, negative = inhibition) at 10uM [%]"
1,Cc1cc(C(=O)N/N=C/c2ccc(OCc3ccccc3)cc2)c(C)o1,17.4
2,NC(=O)NNC1=Nc2cccc3cccc1c23,9.25
3,Cn1c(Cn2cnc3ccccc32)nc2ccccc21,11.4
4,COC(=O)C1CCN(S(C)(=O)=O)CC1,4.45
5,CN1CCC(=O)N([C@H](CN=[N+]=[N-])Cc2ccccc2)CC1,17.9
6,O=C(Nc1ccc2ccccc2c1)N1CCN(c2ncccc2C(F)(F)F)CC1,-7.58
7,C[C@@H]1CN(C(=O)c2nc3ccc(Cl)cn3c2CN(C)CCc2cnn(C)c2)C[C@H](C)O1,-14.3
8,CCOc1ccccc1Nc1nc2ccccc2[nH]1,-2.59
9,Cc1onc(-c2ccccc2Cl)c1C(=O)NCCCN1CCOCC1,9.97
10,C=C(C)[C@@H]1CC[C@]2(C(=O)O)CC[C@]3(C)C(CCC4[C@@]5(C)CC[C@H](O)C(C)(C)C5CC[C@]43C)C12 (stereo partly shown),6.48
11,Cc1ccccc1CC1(CO)CCCN(Cc2ccc(C#CC(C)(C)O)cc2)C1 (stereo not shown),-28.7
12,N#Cc1ccc(NC(=O)CN2C(=O)NC3(CCCC3)C2=O)cc1,-9.01
13,O=C(Nc1cccc2ccccc12)N(CCO)C1CCS(=O)(=O)C1 (stereo not shown),21.1
14,CCN(CC)C(=O)CP(=O)(c1ccccc1)c1ccccc1,13.5
15,Cc1ncc(CN2CCCC(C(=O)Nc3ccc(-c4cscn4)cc3)C2)cn1 (stereo not shown),-5.31
16,CC1(C)C(=O)C2(CCCC2)C(=O)OC1c1ccco1 (stereo not shown),-10.6
17,CCOc1cc(NC(=S)NCC2CCCO2)c(OCC)cc1NC(=O)c1ccccc1F (stereo not shown),3.73
18,CC(=O)O.O=C(O)c1ccc(-c2nc(-c3ccccc3)c(-c3ccccc3)[nH]2)cc1,3.42
19,CCOc1ccc2c(c1)C(c1ccc(C)o1)=NNC(c1ccncc1)=N2,6.32
20,COCCNC(=O)c1ccc2snnc2c1,2.56
21,CCC(C(=O)NC1CCCCCC1)n1nc(C)c2c(C)n(-c3ccccc3)nc2c1=O (stereo not shown),-23.4
22,O=C(CCCN1C(=O)/C(=C\c2cccs2)SC1=S)NNC(=O)c1cccnc1,13.3

row,SMILES,"hERG current change (%, negative = inhibition) at 10uM [%]"
1,O=C(NNc1ccccc1[N+](=O)[O-])NC1CCCCC1,-2.32
2,Cn1cccc1C(=O)C(=O)Nc1ccccc1,0.586
3,CCOC(=O)N1CCN(c2ccc(O)cc2)CC1,15.6
4,Cc1nn(C)c(C)c1S(=O)(=O)N1CCc2ccccc21,-0.253
5,Cc1ccc(NC(=O)NC2CCN(S(=O)(=O)c3ccc(F)cc3)CC2)cc1,-5.65
6,Cc1c([N+](=O)[O-])c([N+](=O)[O-])nn1CC(=O)N1CCCCC1,-3.28
7,COCCCn1c(=O)/c(=C\c2ccccc2OC(F)F)s/c1=C(/C#N)C(N)=O,7.51
8,Clc1ccccc1OCCCOc1cccc2cccnc12,11.6
9,O=c1ccc(-c2ccc(S(=O)(=O)Nc3cccc([N+](=O)[O-])c3)s2)n[nH]1,-4.47
10,Nc1nc(N(Cc2ccccc2)Cc2ccccc2)nc(C(F)(F)F)n1,-2.11
11,COc1ccccc1N1CCN(C(=O)c2ccc([N+](=O)[O-])s2)CC1,-54.5
12,CC(C)(CNC(=O)c1cc(Cl)c(O)c(Cl)c1)N1CCCCC1,4.69
13,CCc1c(C(=O)N2CCOCC2)csc1C,-4.42
14,COc1ccc(NC(=O)c2cc(-c3cccnc3)nc3c(C)c(C)ccc23)c(OC)c1,-7.38
15,O=C1C(=O)N(Cc2cccnc2)C(c2cccc(O)c2)/C1=C(\O)c1ccc2c(c1)OCCO2 (stereo not shown),5.19
16,C[C@H]1CCC[C@@]2(O[C@H](CCO)C[C@H](O)[C@H]2O)O1,-2.78
17,O=C(CN(C(=O)CCC(=O)Nc1ccccn1)c1ccc2c(c1)OCO2)NCc1ccco1,-12.9
18,CC1(C)CC(=O)C(C2c3ccccc3Oc3ccccc32)C(=O)C1,25.6
19,O=C(NN=C1CCCCC1)c1cc(-c2ccccc2)n[nH]1,13.3
20,Cc1ccc2[nH]c(C)c(CCNC(=O)c3cc4cc([N+](=O)[O-])ccc4oc3=O)c2c1,-2.16
21,Clc1cccc(OCCCCCN2CCOCC2)c1,-22.6
22,Cc1nc2ccc(NC(=O)c3ccc(=O)[nH]c3)cc2s1,11.2

row,SMILES,"hERG current change (%, negative = inhibition) at 10uM [%]"
1,Cc1nnc(SCC(=O)NCC2CCCO2)n1-c1ccccc1 (stereo not shown),-4.28
2,O/N=C\c1cccn1-c1nccs1,-16.5
3,NS(=O)(=O)c1ccc(NC(=O)CSc2ncnc3ccccc23)cc1,12.6
4,CNC(=S)N1CCN(c2ccccc2OC)CC1,7.94
5,O=C(COc1ccccc1Cl)Nc1ccc2c(c1)OCCO2,4.85
6,COc1ccc(C(=O)NCC(c2cccs2)N2CCc3ccccc32)c(OC)c1 (stereo not shown),8.79
7,Cc1ccccc1C(=O)N1CCC(C(=O)Nc2cc(C(F)(F)F)ccc2N2CCCC2)CC1,-10.6
8,O=C(OCC(=O)N1CCN(C(=O)c2ccco2)CC1)c1cc(S(=O)(=O)Nc2ccc(Cl)cc2)ccc1O,-64.6
9,Cc1cc(NC(=O)CCNS(=O)(=O)c2cc(Br)cnc2N)ccc1Br,-8.16
10,Cc1ccc(-c2nc(N)c3c(-c4ccc(C)cc4)nn(C(C)(C)C)c3n2)cc1,-1.71
11,CCN(C(=O)COC(=O)c1sccc1C)c1c(N)n(Cc2ccccc2)c(=O)[nH]c1=O,-1.45
12,Cc1nn(-c2ccccc2)c(Cl)c1/C=N/Nc1ccc(Cl)c(C(=O)O)c1,21.3
13,C=CCOc1ccc(Cl)cc1CNC1CCCC1.Cl,-21.9
14,Cc1ccc(C)c(S(=O)(=O)NCc2ccc(C(=O)N3CCCCCC3)cc2)c1,12.3
15,CCN(CC)C(=O)COc1ccc(C=O)cc1OC,-3.23
16,CCOc1ccccc1-c1nnc(SCC(=O)NC2CC3CCC2C3)n1CC (stereo not shown),-3.89
17,O=c1oc2cc(OCc3c(F)c(F)c(F)c(F)c3F)ccc2cc1-c1ccccn1,14
18,COc1ccc(S(=O)(=O)N2CCCC(C(=O)O)C2)cc1Cl (stereo not shown),6.43
19,Cc1cc[n+](CC(=O)Nc2nc3ccccc3s2)cc1.[Cl-],10.5
20,Cc1ccc(CNC(=O)c2ccc(Cl)cc2[N+](=O)[O-])cc1,9.22
21,O=C(NNc1cc(N2CCOCC2)nc(N2CCOCC2)n1)c1ccc(Cl)c(Cl)c1,-36.5
22,COc1ccc2c(c1OC)C(=O)N1c3ccccc3C(=O)N(c3ccc(F)cc3)C21 (stereo not shown),2.75
